Source: PubChem BioAssay AID686978 (National Center for Advancing Translational Sciences (NCATS), 2013)
Where “and” joins values, the source holds several entries; their conditions need not be identical. Equal values may be shown once. The campaign covered roughly 420,000 compounds. About 64,000 (15%) were called active. Inconclusive means that the source gave no clear call. Such entries were picked first, then a sample of the others. Calls follow the shape of the dose curve; as a rule, active = well fitted inhibition curve with a large enough effect; inconclusive = small, poorly fitted or top-dose-only effect; inactive = flat fitted curve, though single readings scatter. A potency beside an inconclusive call is a rough fit, not a confirmed value.

experiment: qHTS for Inhibitors of human tyrosyl-DNA phosphodiesterase 1 (TDP1): qHTS in cells in absence of CPT; conditions: DT40 Tdp1-/- hTDP1 cells, no CPT, ATP luminescence, 48 h; activity change, negative = growth inhibition: at 46.2 µM (top of the series) unless noted; also: nearly all actives have a fitted effect of over 55% in size
In short: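 Growth kinetics read by CellTiter-Glo luminescence after ≥48 hr at 37 °C. Cells: DT40 Tdp1-/- stably carrying human TDP1, 400 per well, compound exposure in the absence of CPT (DMSO vehicle).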
% is scaled to controls: 0 for no effect and ±100 for the full control effect; potency is read from the fitted curve at half-maximal effect; tags tell the direction and shape of the fitted curve.

| SMILES | Potency | activity change, negative = growth inhibition |
| --- | --- | --- |
| CCCCN(CCCC)CCn1cnc2c([nH]c3ccc(OC)cc32)c1=O | inconclusive: 23.1 µM [inhibitor, partial curve] and inconclusive: 8.2 µM [inhibitor, partial curve] |  |
| CC(C)c1ccc(N=Cc2c(O)c3ccccc3oc2=O)cc1 | inconclusive: 20.6 µM [inhibitor, single point] |  |
| COc1ccc(NC(=O)c2oc3ccccc3c2NC(=O)c2cc(=O)c3ccccc3o2)cc1 | inconclusive: 6.51 µM [inhibitor, single point] |  |
| CC(=O)c1cccc(NC(=O)C(OC(=O)c2cccc(S(=O)(=O)N(C)c3ccccc3)c2)c2ccccc2)c1 (stereo not drawn) | inconclusive: 20.6 µM [inhibitor, single point] |  |
| COc1cc2cc3c(N)c(C(=O)NCc4ccco4)sc3nc2cc1OC | active: 14.6 µM |  |
| COc1cccc(/C=N/Nc2cc(N3CCOCC3)ncn2)c1O | active: 6.51 µM |  |
| CCC(C(=O)NCC1CCCO1)N(Cc1ccccc1)C(=O)CNS(=O)(=O)c1ccccc1 (stereo not drawn) |  | inactive: -13.7% |
| COc1ccc(C(=O)Nc2ccc3c(c2)CCCN3S(=O)(=O)c2ccc(C)cc2)cc1 | active: 13 µM |  |
| O=C(c1ccccc1)N1N=C(c2ccccc2O)CC1c1ccccc1 (stereo not drawn) | inconclusive: 29.1 µM [inhibitor, single point] |  |
| O=C(Nc1cccc(F)c1)c1sc(Cl)nc1-c1ccccc1 | inconclusive: 29.1 µM [inhibitor, single point] |  |
| O=C(NCc1cccc(C(F)(F)F)c1)c1ccc2sc(C3=C[C@@H](O)[C@@H](O)[C@@H](CO)O3)nc2c1 | active: 11.6 µM |  |
| CC1(C(=O)Nc2ccc3c(c2)OCCO3)CN(S(C)(=O)=O)CC(=O)N1Cc1cccs1 (stereo not drawn) |  | inactive: 1.91% |
| CC(C)c1ccc(C(=O)Nc2ccc(N3CCOCC3)cc2)cc1 | active: 20.6 µM |  |
| CN(C)CCn1c(NC(=O)c2ccc(Cl)cc2)nc2ccccc21 |  | inconclusive: -31% [inhibitor] |
| CCCCN(C)c1nc(-c2ccco2)c2c(c1C#N)CC(C)(C)OC2 | inconclusive: 29.1 µM [inhibitor, single point] |  |
| O=C(Cn1nc(-c2ccccc2)ccc1=O)Nc1ccc(N2CCN(C(=O)c3cccs3)CC2)cc1 | inconclusive: 25.9 µM [inhibitor, single point] |  |
| Cc1nc(N2CCN(C)CC2)c2c3c(sc2n1)CCCC3 | inconclusive: 18.4 µM [inhibitor, single point] |  |
| S=C(Nc1ccccc1Cl)N1CCCC(c2ccccc2)=N1 | active: 29.1 µM |  |
| CCN(C(=O)C(C)Sc1ccc(S(=O)(=O)N2CCN(C)CC2)cn1)c1ccccc1 (stereo not drawn) | inconclusive: 29.1 µM [inhibitor, single point] |  |
| COc1ccc(CCC(=O)Nc2cccc(S(=O)(=O)N3CCOCC3)c2)cc1OC | inconclusive: 18.4 µM [inhibitor, partial curve] |  |
| COC(C(=O)N/N=C(\C)c1ccc(C(C)(C)C)cc1)c1ccccc1 (stereo not drawn) | inconclusive: 11.6 µM [inhibitor, partial curve] |  |
| O=C(Nc1ccc(Cl)c(NC(=O)c2cccs2)c1)c1ccco1 | inconclusive: 25.9 µM [inhibitor, single point] |  |
| O=C(NNC(=O)c1ccc(Cl)cc1Cl)c1cnccn1 | active: 25.9 µM |  |

| SMILES | Potency | activity change, negative = growth inhibition |
| --- | --- | --- |
| CCCCOc1ccc(C(=O)N/N=C/c2ccc(OCCN3CCCCC3)c(OC)c2)cc1 | inconclusive: 18.4 µM [inhibitor, single point] |  |
| COC(=O)C1C(=O)/C(=C(/C)N2CCCC2)C(=O)CC1(C)C (stereo not drawn) |  | inactive: -7.78% |
| COc1ccc(OC)c2[nH]c(=O)c(CCNS(=O)(=O)c3ccc(F)cc3)cc12 |  | inactive: -16.7% |
| CC(C)CC(=O)N1CCN(c2ccc(NC(=O)c3ccco3)cc2)CC1 |  | inactive: -0.143% |
| C[C@@H]1CN([C@H](C)CO)C(=O)c2cc(NC(=O)Cc3cn(C)c4ccccc34)ccc2O[C@H]1CN(C)S(=O)(=O)c1ccc(F)cc1 | inconclusive: 16.4 µM [inhibitor, single point] |  |
| COCCC(=O)N1CCC(Oc2ccc(C(=O)N3CCCC(OC)C3)cc2)CC1 (stereo not drawn) |  | inactive: 27.5% |
| COc1cc(OC)cc(C(=O)N(Cc2ccco2)Cc2cccs2)c1 | inconclusive: 35.5 µM [inhibitor, single point] |  |
| CCc1ccc(-c2nc(CN3CCCC(C(=O)NCc4ccccc4Cl)C3)c(C)o2)cc1 (stereo not drawn) | active: 4.61 µM |  |
| O=C(CN1C(=O)NC2(CCCC2)C1=O)Nc1cc(S(=O)(=O)N2CCCCC2)ccc1Cl | inconclusive: 29.1 µM [inhibitor, single point] |  |
| OCC1(Cc2ccccc2)CCN(Cc2cc3ccccc3o2)CC1 | inconclusive: 29.1 µM [inhibitor, single point] |  |
| Nc1ccc(CNC(=O)c2cc3cc(Cl)ccc3nc2N)cc1 | inconclusive: 20.6 µM [inhibitor, single point] |  |
| CCCN(CCC)S(=O)(=O)c1ccc(C(=O)N2CCC(=O)c3ccccc32)cc1 | active: 23.1 µM |  |
| Cc1ccc(S(=O)(=O)N2CCN(C(=O)c3ccnn3C)CC2)cc1C |  | inactive: 14.2% |
| Cc1ccc2c(c1)-c1nc(-c3ccccc3)cc(-c3ccccc3)c1CO2 | inconclusive: 9.2 µM [inhibitor, single point] |  |
| Cc1ccc(S(=O)(=O)n2cnc3cc([N+](=O)[O-])ccc32)cc1C |  | inactive: -25% |
| C/C(=N\Nc1cc(-c2ccccc2)nc(-c2ccc(Br)cc2)n1)c1cccc(N)c1 | inconclusive: 29.1 µM [inhibitor, single point] |  |
| CCOc1ccc(-c2cccc(NS(=O)(=O)c3cccc([N+](=O)[O-])c3)c2)nn1 | inconclusive: 14.6 µM [inhibitor, partial curve, poor fit] |  |
| COc1cc2c(cc1OC)C(c1ccc(-c3ccc(Cl)c(Cl)c3)o1)=NCC2 | active: 794 nM and active: 1.84 µM |  |
| COCCN(C(=O)Nc1ccc(OC)cc1)c1nc2ccccc2s1 | inconclusive: 29.1 µM [inhibitor, single point] |  |
| O=C(NCCc1csc(-c2cccc(F)c2)n1)c1ccco1 | inconclusive: 25.9 µM [inhibitor, single point] and inconclusive: 29.1 µM [inhibitor, single point] |  |
| CCOC(=O)[C@]12CCC=C1N(Cc1cccc3ccccc13)C(=O)[C@H](CC(=O)NCC13CC4CC(CC(C4)C1)C3)C2 | inconclusive: 16.4 µM [inhibitor, single point] |  |
| CCN1C(=O)/C(=C/c2ccc(N3CCCC3)cc2)NC1=S | active: 23.1 µM |  |
| COc1cc(-c2cc3n(C)c(C)c(CCC(=O)NC4CCC(C)CC4)c(=O)n3n2)cc(OC)c1OC (stereo not drawn) | active: 13 µM |  |

| SMILES | Potency | activity change, negative = growth inhibition |
| --- | --- | --- |
| CCOC(=O)N1CCN(C(=O)c2ccc(N3C(=O)CCC3=O)cc2)CC1 |  | inactive: 2.63% |
| O=C(Nc1nnc(-c2ccc3c(c2)CCCC3)o1)C1COc2ccccc2O1 (stereo not drawn) | inconclusive: 20.6 µM [inhibitor, partial curve] |  |
| CCN(CC)S(=O)(=O)c1cc(C(=O)Oc2cccc(-c3cnc4ccccc4n3)c2)ccc1Br | active: 18.4 µM |  |
| Brc1cccc(-c2nnc(SCc3nc4ccccc4[nH]3)o2)c1 | inconclusive: 29.1 µM [inhibitor, single point] |  |
| Cc1ccc(C)c(C(=O)OCC(=O)Nc2cccc(S(=O)(=O)N3CCCCC3)c2)c1 | active: 10.3 µM |  |
| COc1ccc(OC)c(NC(=O)CSc2nc(N)c(-c3ccccc3)c(=O)[nH]2)c1 |  | inactive: 2.08% |
| CC(NC(=O)Nc1ccc(F)cc1F)c1ccc2c(c1)OCO2 (stereo not drawn) |  | inactive: -5.13% |
| O=C(COC(=O)C1(c2ccccc2F)CCCC1)Nc1ncc(C(F)(F)F)cc1Cl | inconclusive: 0.651 µM [inhibitor, full curve, poor fit] |  |
| O=S(=O)(NCCc1ccccc1F)c1cccc(S(=O)(=O)N2CCOCC2)c1 | inconclusive: 29.1 µM [inhibitor, single point] |  |
| CC(C)c1ccc(/C=N/NC(=O)c2ccccc2Cl)cc1 | active: 2.91 µM |  |
| O=C(NC1CCCC1)c1ccc2c(c1)N(Cc1c(F)cccc1Cl)C(=O)c1ccccc1S2 | active: 16.4 µM |  |
| O=C(N/N=C/c1cc([N+](=O)[O-])ccc1O)c1cccc(N2CCCC2=O)c1 | active: 10.3 µM |  |
| Cc1ccc(S(=O)(=O)N2[C@@H](c3ccc(Cl)c(Cl)c3)C(C(=O)O)=C[C@H]2C(C)(C)C)cc1 | inconclusive: 29.1 µM [inhibitor, single point] |  |
| NC(=O)COC(=O)c1ccc2c(c1)C(=O)N(Cc1ccco1)C2=O |  | inactive: -3.81% |
| COc1ccc(NC(=O)c2sc(=O)n(Cc3ccc(F)c(Cl)c3)c2C)cc1OC | active: 10.3 µM |  |
| COC(=O)c1c(-c2cccc(OC)c2)csc1N | inconclusive: 32.6 µM [inhibitor, single point] |  |
| CCCn1c(NC(=O)c2ccc([N+](=O)[O-])o2)nc2ccccc21 | inconclusive: 29.1 µM [inhibitor, single point] |  |
| O=C(CSCC(=O)c1ccc([N+](=O)[O-])cc1)c1ccc([N+](=O)[O-])cc1 | inconclusive: 18.4 µM [inhibitor, single point] |  |
| Cc1cc(OC(=O)N2CCOCC2)cc(C)c1Cl |  | inactive: -23.3% |
| COc1cccc2c1Oc1ncccc1N(C(=O)CCC(=O)NCc1ccc(OC(C)C)cc1)C2 | inconclusive: 18.4 µM [inhibitor, single point] |  |
| C(=C\c1nc2ccccc2nc1/C=C/c1ccc2c(c1)OCO2)/c1ccc2c(c1)OCO2 | inconclusive: 10 µM [inhibitor, partial curve] |  |
| CN1CCN(c2ncc3nc(CCc4ccccc4)c(=O)n(Cc4ccc(F)cc4)c3n2)CC1 | active: 14.6 µM |  |
